Structures are written as SMILES. This is one part of the list.

For one experiment, the system named is HSkMC. Kind of experiment: cytotoxicity call (relative viability < 0.9). Particulars: 10 µM.
Another experiment concerns HepG2. Kind of experiment: cytotoxicity call (relative viability < 0.9). Particulars: 10 µM.
The test system of the next experiment is S. aureus RN4220. As to the kind of experiment: growth inhibition call (relative growth <= 0.2). Particulars: 50 µM.

Regarding `C[C@@H]1CN([C@H](C)CO)C(=O)c2cccc(NC(=O)CCCCCC(=O)Nc3ccccc3N)c2O[C@H]1CN(C)Cc1ccc(Oc2ccccc2)cc1`, the cytotoxicity call in the experiment on HSkMC and in the experiment on HepG2 was “inactive” in each case. In addition, in the experiment with S. aureus RN4220, the growth inhibition call was “inactive”.
Turning to `C[C@H](CO)N1C[C@H](C)[C@@H](CN(C)C(=O)c2ccccc2)OCCCC[C@H](C)Oc2ccc(NC(=O)Nc3ccc4c(c3)OCO4)cc2C1=O`, the cytotoxicity call in the experiment with HSkMC and with HepG2 was “inactive” throughout. In addition, the growth inhibition call in the experiment with S. aureus RN4220 was “inactive”.
With `C[C@@H]1CN([C@@H](C)CO)C(=O)CCCn2cc(nn2)CO[C@H]1CN(C)S(C)(=O)=O`, the cytotoxicity call in the experiment on HSkMC and in the experiment on HepG2 was “inactive” each time. In addition, the growth inhibition call with S. aureus RN4220 is “inactive”.
For the molecule `O=C(C[C@@H]1CC[C@@H]2[C@H](COC[C@H](O)CN2C(=O)c2cnccn2)O1)NCc1ccc(Oc2ccccc2)cc1`, the cytotoxicity call in the experiment on HSkMC and in the experiment on HepG2 was “inactive” in each case. In addition, the growth inhibition call with S. aureus RN4220 was “inactive”.
For `C[C@@H]1CCCCO[C@@H](CN(C)C(=O)Nc2cccc3ccccc23)[C@H](C)CN([C@@H](C)CO)C(=O)c2cc(NC(=O)Nc3cccc4ccccc34)ccc2O1`, the cytotoxicity call with HSkMC and with HepG2 was “active” in each case. In the experiment on S. aureus RN4220, the growth inhibition call is “inactive”.
Turning to `C[C@@H]1CN([C@@H](C)CO)C(=O)c2cc(NC(=O)C3CCCCC3)ccc2O[C@@H](C)CCCCO[C@H]1CN(C)C(=O)Nc1ccc2c(c1)OCO2`, the cytotoxicity call in the experiment on HSkMC and with HepG2 was “inactive” each time. For the same molecule, the growth inhibition call in the experiment with S. aureus RN4220 is “inactive”.
As for `Cc1ccc(S(=O)(=O)N(C)C[C@@H]2OCCCC[C@H](C)Oc3ccc(NS(C)(=O)=O)cc3C(=O)N([C@H](C)CO)C[C@@H]2C)cc1`, the cytotoxicity call with HSkMC and in the experiment with HepG2 was “inactive” each time. Moreover, the growth inhibition call in the experiment with S. aureus RN4220 is “inactive”.
On to `C[C@H](CO)N1C[C@H](C)[C@H](CN(C)S(=O)(=O)c2cn(C)cn2)Oc2ccc(NC(=O)Cc3ccccc3)cc2C1=O`, for which the cytotoxicity call in the experiment on HSkMC and in the experiment on HepG2 was “inactive” throughout. In the experiment on S. aureus RN4220, the growth inhibition call was “inactive”.
With `COCC(=O)Nc1ccc2c(c1)[C@@H]1C[C@H](CC(=O)N3CCOCC3)O[C@@H](CO)[C@@H]1O2`, the cytotoxicity call in the experiment on HSkMC and in the experiment with HepG2 was “inactive” throughout. Moreover, in the experiment with S. aureus RN4220, the growth inhibition call was “inactive”.
Turning to `Cc1ccc(S(=O)(=O)N(C)C[C@@H]2OCCCC[C@@H](C)Oc3ccc(NS(=O)(=O)c4ccc(Cl)cc4)cc3C(=O)N([C@@H](C)CO)C[C@@H]2C)cc1`, the cytotoxicity call in the experiment on HSkMC and in the experiment on HepG2 was “inactive” throughout. The growth inhibition call with S. aureus RN4220 was “inactive”.
Turning to `COc1ccc(CN(C)C[C@H]2OCCCC[C@@H](C)Oc3ccc(NS(=O)(=O)c4cccs4)cc3C(=O)N([C@H](C)CO)C[C@@H]2C)cc1`, the cytotoxicity call in the experiment with HSkMC and in the experiment with HepG2 was “inactive” throughout. Besides, the growth inhibition call in the experiment with S. aureus RN4220 is “inactive”.
As to `C[C@H](CO)N1C[C@H](C)[C@@H](CN(C)C(=O)Nc2cccc3ccccc23)Oc2c(NC(=O)Nc3ccc(C(F)(F)F)cc3)cccc2C1=O`, the cytotoxicity call in the experiment on HSkMC and in the experiment on HepG2 was “inactive” in each case. In addition, the growth inhibition call in the experiment on S. aureus RN4220 is “active”.
As to `C[C@H](CO)N1C[C@H](C)[C@@H](CN(C)Cc2ccc(-c3ccccc3)cc2)Oc2ccc(NS(=O)(=O)c3cccs3)cc2CC1=O`, the cytotoxicity call in the experiment with HSkMC and with HepG2 was “inactive” throughout. In the experiment with S. aureus RN4220, the growth inhibition call is “inactive”.
On to `O=C(C[C@@H]1CC[C@H]2[C@@H](COC[C@@H](O)CN2S(=O)(=O)c2ccc(F)cc2)O1)N[C@H]1CCN(Cc2ccccc2)C1`, for which the cytotoxicity call with HSkMC and with HepG2 was “inactive” throughout. For the same molecule, the growth inhibition call with S. aureus RN4220 is “inactive”.
Turning to `CCC(=O)NCc1nn(C)c2c1COCC2`, the cytotoxicity call with HSkMC and in the experiment on HepG2 was “inactive” each time. Moreover, the growth inhibition call with S. aureus RN4220 is “inactive”.
For the molecule `COc1ccccc1S(=O)(=O)N(C)C[C@H]1Oc2ncc(Br)cc2C(=O)N([C@H](C)CO)C[C@H]1C`, the cytotoxicity call in the experiment with HSkMC and in the experiment on HepG2 was “inactive” each time. Further, the growth inhibition call in the experiment with S. aureus RN4220 was “inactive”.
On to `C[C@@H]1CN([C@H](C)CO)C(=O)Cc2cc(NC(=O)CCN3CCOCC3)ccc2O[C@H]1CN(C)CC1CC1`, for which the cytotoxicity call with HSkMC and in the experiment with HepG2 was “inactive” throughout. Moreover, the growth inhibition call in the experiment with S. aureus RN4220 is “inactive”.
`Cc1noc(C)c1NC(=O)Nc1ccc2c(c1)CC(=O)N([C@@H](C)CO)C[C@@H](C)[C@H](CN(C)Cc1ccc(Cl)c(Cl)c1)O2`: the cytotoxicity call in the experiment with HSkMC and in the experiment with HepG2 was “inactive” in each case. Moreover, the growth inhibition call in the experiment with S. aureus RN4220 is “inactive”.
For `Cc1ccc(S[C@]2(C(=O)NCC(C)C)CC(=O)N(Cc3ccccc3C(F)(F)F)[C@@H]2c2ccc(CO)cc2)cc1`, the cytotoxicity call in the experiment with HSkMC and with HepG2 was “inactive” each time. Moreover, the growth inhibition call in the experiment on S. aureus RN4220 is “inactive”.
Consider `C[C@@H]1CCCCO[C@@H](CN(C)S(C)(=O)=O)[C@@H](C)CN([C@H](C)CO)C(=O)c2cc(NC(=O)c3ccncc3)ccc2O1`, for which the cytotoxicity call in the experiment on HSkMC (human skeletal muscle cells) and with HepG2 was “inactive” in each case. Further, in the experiment on S. aureus RN4220, the growth inhibition call is “inactive”.
In the case of `CCNC(=O)C[C@H]1CC[C@H]2[C@@H](COC[C@@H](O)CN2S(=O)(=O)c2ccc(Oc3ccccc3)cc2)O1`, the cytotoxicity call in the experiment with HSkMC and in the experiment with HepG2 was “inactive” each time. Also, the growth inhibition call in the experiment with S. aureus RN4220 was “inactive”.
As to `CC(C)NC(=O)Nc1cccc2c1O[C@H](CN(C)S(=O)(=O)c1ccc(F)cc1)[C@H](C)CN([C@H](C)CO)C2=O`, the cytotoxicity call in the experiment with HSkMC and in the experiment on HepG2 was “inactive” in each case. Moreover, in the experiment on S. aureus RN4220, the growth inhibition call is “inactive”.
With `COc1ccc(S(=O)(=O)Nc2ccc3c(c2)CC(=O)N([C@H](C)CO)C[C@@H](C)[C@H](CN(C)Cc2ccc(Cl)c(Cl)c2)O3)cc1`, in the experiment with HSkMC, the cytotoxicity call is “inactive”. Also, the cytotoxicity call in the experiment on HepG2 is “active”. The growth inhibition call in the experiment with S. aureus RN4220 is “inactive”.
`CC(C)OC(=O)c1cn(Cc2c(F)cccc2F)c2sc(-c3ccc(NC(=O)C(C)C)cc3)c(CN(C)Cc3ccccc3)c2c1=O`: the cytotoxicity call in the experiment with HSkMC was “inactive”. In the experiment with HepG2, the cytotoxicity call is “active”. For the same molecule, the growth inhibition call with S. aureus RN4220 is “inactive”.
As to `C[C@H]1CN([C@@H](C)CO)C(=O)Cc2cc(NC(=O)Cn3cnnn3)ccc2O[C@H]1CN(C)CC1CCCCC1`, the cytotoxicity call in the experiment with HSkMC and in the experiment with HepG2 was “inactive” each time. Further, the growth inhibition call in the experiment on S. aureus RN4220 was “inactive”.
On to `Cc1ncc([N+](=O)[O-])cc1C(=O)O`, for which the cytotoxicity call in the experiment with HSkMC and in the experiment on HepG2 was “inactive” each time. The growth inhibition call in the experiment with S. aureus RN4220 was “inactive”.

The values are drawn from the antibiotic and cytotoxicity screens of Wong et al. (2023).
